The other results are listed elsewhere or left out.

This assay has as its system HSkMC (human skeletal muscle cells). Briefly: cytotoxicity call (relative viability < 0.9). The following applies: 10 µM.
Turning to `Cn1nnc2cc(CO)ccc21`, the cytotoxicity call was “inactive”.

For the compound `C[C@@H]1CN([C@H](C)CO)C(=O)c2cc(NC(=O)Nc3ccc(F)cc3)ccc2O[C@@H](C)CCCCO[C@H]1CN(C)S(=O)(=O)c1ccccc1`, the cytotoxicity call is “inactive”.

As for `O=C(C[C@@H]1CC[C@H](NC(=O)c2ccc(F)cc2)[C@@H](CO)O1)NCc1ccncn1`, the cytotoxicity call was “inactive”.

`N#Cc1ccc(C(c2ccc(C#N)cc2)n2cncn2)cc1`: the cytotoxicity call was “inactive”.

For the compound `Cc1cc(C(=O)Nc2cccc3c2O[C@@H](CN(C)Cc2ccc(C(=O)O)cc2)[C@@H](C)CN([C@@H](C)CO)C3=O)n(C)n1`, the cytotoxicity call is “inactive”.

On to `Cc1ccc(S(=O)(=O)Nc2ccc3c(c2)CC(=O)N([C@H](C)CO)C[C@@H](C)[C@H](CN(C)S(=O)(=O)c2cn(C)cn2)O3)cc1`, for which the cytotoxicity call was “inactive”.

Take `CN(Cc1ccccc1)C[C@H]1C[C@@H](c2ccc(CO)cc2)O[C@H](c2ccc(NC(=O)CCCCCCC(=O)NO)cc2)O1`: the cytotoxicity call is “inactive”.

For `NCc1cccc(O)c1`, the cytotoxicity call is “inactive”.

As for `COc1ccc(CN(C)C[C@H]2Oc3ccc(NC(=O)CCN4CCOCC4)cc3CC(=O)N([C@@H](C)CO)C[C@@H]2C)cc1`, the cytotoxicity call is “inactive”.

As for `Cc1ccc(S(=O)(=O)Nc2cccc3c2O[C@H](CN(C)S(=O)(=O)c2c(C)noc2C)[C@H](C)CN([C@H](C)CO)C3=O)cc1`, the cytotoxicity call was “inactive”.

For the compound `COc1ccc(CNC(=O)C[C@@H]2CC[C@H]3[C@H](COc4ccc(NC(=O)C(C)C)cc4C(=O)N3C)O2)cc1`, the cytotoxicity call was “inactive”.

With `COc1ccc(NC(=O)N(C)C[C@@H]2Oc3ccc(NC(=O)CCN4CCOCC4)cc3CC(=O)N([C@H](C)CO)C[C@@H]2C)cc1`, the cytotoxicity call is “inactive”.

The values above are taken from the antibiotic and cytotoxicity screens of Wong et al. (2023).
